Values of other authors as cited in publication PMC9967956, “Efficacy of Trichoderma longibrachiatum Trichogin GA IV Peptaibol analogs against the Black Rot Pathogen Xanthomonas campestris pv. campestris and other Phytopathogenic Bacteria” (Microorganisms, 2023).
Where a SMILES comes first, the peptide text is derived from it. [ ]: non-standard residue; d: D form. The star is where a group is joined. Leu(ol) = CC(C)C[C@H](N)CO; Octanoyl = CCCCCCCC(=O)*; Aib = CC(C)(N)C(=O)O

Test system: B. cinerea
Conditions: cited from earlier work

| Molecule | Efficacy towards B. cinerea |
| --- | --- |
| CCCCCCCC(=O)NC(C)(C)C(=O)N[C@@H](CCCCN)C(=O)N[C@@H](CC(C)C)C(=O)NC(C)(C)C(=O)NCC(=O)NCC(=O)N[C@@H](CC(C)C)C(=O)NC(C)(C)C(=O)NCC(=O)N[C@H](C(=O)N[C@H](CO)CC(C)C)[C@@H](C)CC [Peptide 2] (Octanoyl-[Aib]KL[Aib]GGL[Aib]GI[Leu(ol)]) | poorly effective |
| nOct-Aib-Gly-Leu-Aib-Lys-Aib-Leu-Aib-Gly-Ile-Lol [Peptide 6, full-length synthetic analog of trichogin GA IV] | poorly effective |
| nOct-Aib-Lys-Leu-Aib-Gly-Lys-Leu-Aib-Gly-Ile-Lol [Peptide 7, full-length synthetic analog of trichogin GA IV] | poorly effective |
| nOct-Aib-Lys-Leu-Aib-Lys-Gly-Leu-Aib-Gly-Ile-Lol [Peptide 1, full-length synthetic analog of trichogin GA IV] | poorly effective |
